# From PMC4336329 (PLoS ONE, 2015)
# In all, about 310,000 compounds went through this assay and about 2,200 (0.71%) showed an effect of 50% or more. Effects have a minus sign here. The list shows a part of the results. Where a SMILES comes first, the peptide text is derived from it. The star is where a group is joined. Piperidide = C1CCN(*)CC1; PhAc = O=C(Cc1ccccc1)*
# Target: human ether-à-go-go-related gene (hERG) potassium channel (human, UniProt Q12809)
# Assay: primary screen, population patch clamp on CHO cells stably expressing hERG
# Chain of human ether-à-go-go-related gene (hERG) potassium channel (Q12809 whole entry, looked up): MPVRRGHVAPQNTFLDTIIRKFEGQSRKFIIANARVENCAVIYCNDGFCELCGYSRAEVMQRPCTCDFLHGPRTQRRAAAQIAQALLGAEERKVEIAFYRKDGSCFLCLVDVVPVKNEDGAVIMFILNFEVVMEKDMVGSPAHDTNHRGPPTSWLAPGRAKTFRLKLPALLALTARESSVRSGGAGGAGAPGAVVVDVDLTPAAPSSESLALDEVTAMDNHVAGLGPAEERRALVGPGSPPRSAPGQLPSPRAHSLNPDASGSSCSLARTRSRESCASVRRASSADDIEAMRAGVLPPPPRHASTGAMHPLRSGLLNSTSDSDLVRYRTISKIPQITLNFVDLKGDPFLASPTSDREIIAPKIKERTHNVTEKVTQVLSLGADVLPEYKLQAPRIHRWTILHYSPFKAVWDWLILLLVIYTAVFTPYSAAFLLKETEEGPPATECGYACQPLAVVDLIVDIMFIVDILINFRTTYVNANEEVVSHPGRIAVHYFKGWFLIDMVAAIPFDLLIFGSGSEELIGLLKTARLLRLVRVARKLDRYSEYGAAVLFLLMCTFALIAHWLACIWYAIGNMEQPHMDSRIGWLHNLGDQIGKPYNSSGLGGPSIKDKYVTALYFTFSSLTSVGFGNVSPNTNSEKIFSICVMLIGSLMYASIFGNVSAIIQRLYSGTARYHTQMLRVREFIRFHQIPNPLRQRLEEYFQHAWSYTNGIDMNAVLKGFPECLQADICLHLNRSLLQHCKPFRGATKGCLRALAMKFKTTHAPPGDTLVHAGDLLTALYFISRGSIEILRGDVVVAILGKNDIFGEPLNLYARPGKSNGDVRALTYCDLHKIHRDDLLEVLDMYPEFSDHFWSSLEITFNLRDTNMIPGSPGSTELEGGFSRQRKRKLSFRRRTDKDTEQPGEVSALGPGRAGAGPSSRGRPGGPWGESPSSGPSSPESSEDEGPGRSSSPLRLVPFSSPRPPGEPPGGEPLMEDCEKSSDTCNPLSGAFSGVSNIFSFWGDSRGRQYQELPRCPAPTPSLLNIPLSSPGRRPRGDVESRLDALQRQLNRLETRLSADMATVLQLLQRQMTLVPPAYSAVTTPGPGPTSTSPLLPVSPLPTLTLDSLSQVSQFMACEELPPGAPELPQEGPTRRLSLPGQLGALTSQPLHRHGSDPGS
row,Structure (SMILES),"hERG current change (%, negative = inhibition) at 1uM [%]"
1,C[N+]1(C)CCc2cc3c(cc2[C@H]1[C@@H]1OC(=O)c2c1ccc1c2OCO1)OCO3.[Br-],13.1
2,O=C(c1ccc2c(=O)n3c(nc2c1)CCCCC3)N1CCN(c2ccccc2F)CC1,5.62
3,CCCc1ccc(C2C3=C(CC(C)(C)CC3=O)NC3=C2C(=O)c2ccccc23)cc1 (stereo not drawn),2.48
4,O=C(Nc1cccc(S(=O)(=O)N2CCCCCC2)c1)C1CCC1,3.98
5,COc1cccc(CC(=O)NC2CCCN(Cc3ccccc3F)C2)c1 (stereo not drawn),-2.78
6,COc1ccc(OC)c(N(CC(=O)Nc2ccccc2)S(C)(=O)=O)c1,18.4
7,CCc1ccc(C(C(=O)NCc2ccc(OC)cc2)N(CCOC)C(=O)Cc2cccs2)cc1 (stereo not drawn),1.36
8,Cc1ccc(C(=O)Sc2cccccc2=O)cc1,15.1
9,Cc1ccc(Cl)cc1N(CC(=O)NCc1ccc2c(c1)OCO2)S(C)(=O)=O,-14.3
10,Cc1ccc(S(=O)(=O)NCC(c2ccco2)N2CCc3ccccc32)cc1 (stereo not drawn),-5.38
11,O=C(COC(=O)c1sc2cc(F)ccc2c1Cl)Nc1ncc(Cl)cc1Cl,14.5
12,COC(=O)CCC(=O)OC1(C)C(=O)C=C2C=C(C3CC3)N(Cc3ccccc3)C=C2C1=O (stereo not drawn),15.8
13,COC(=O)c1cccc(S(=O)(=O)N2CCC(n3nnc4cc(F)ccc43)CC2)c1,-0.319
14,COc1cccc2cc(C(N)=O)oc12,10.9
15,COc1cc(N=Cc2c(CO)cnc(C)c2O)cc(OC)c1OC,12.8
16,COc1ccc(-c2cn[nH]c2-c2ccc(O)cc2O)cc1,9.74
17,O=C(CC1OC(=O)c2ccccc21)Nc1cc(Cl)ccc1N1CCCC1 (stereo not drawn),8.82
18,CC(c1ccccc1)N1C(=O)/C(=C/c2ccncc2)SC1=S (stereo not drawn),12.5
19,C=CCn1c(SCC(=O)N2CCOCC2)nc2c([nH]c3ccccc32)c1=O,-1.44
20,O=C(Nc1ccc(Br)cc1)C1CCCN(S(=O)(=O)c2cccnc2)C1 (stereo not drawn),1.16
21,O=C(CNC(=O)Cc1ccccc1)NCC(=O)N1CCCCC1 (PhAc-Gly-Gly-Piperidide),3.75
22,CC(C)(C)C(=O)C(Cc1ccccc1)n1cncn1 (stereo not drawn),11.1

row,Structure (SMILES),"hERG current change (%, negative = inhibition) at 1uM [%]"
1,COc1ccc(N2CCN(C(=O)c3cccc(S(=O)(=O)N4CCCc5ccccc54)c3)CC2)cc1,-8.14
2,COc1ccc(C)cc1S(=O)(=O)n1cnc2ccccc21,11.2
3,COc1ccc(C(=O)Oc2ccc3ccc(=O)oc3c2)cc1,22.4
4,CSc1nc2ccc(C)cc2c(=O)n1-c1cccnc1,2.22
5,O=C(NC1CC1)C1CCCN(C(=O)Nc2ccc(F)cc2)C1 (stereo not drawn),6.04
6,C/C(Cn1ncc(N2CCOCC2)c(Cl)c1=O)=N\O,16.2
7,CN(Cc1ccccc1)Cc1nc2c(c(=O)n(C)c(=O)n2C)n1Cc1ccc(F)cc1,-5.95
8,CCOC(=O)N/N=C/c1cccc(Cl)c1Cl,10.7
9,O=C(COc1ccccc1)Nc1nnc(-c2ccc(Cl)s2)o1,4.99
10,Cn1c(=O)c2c(nc(OCCc3ccccc3)n2C)n(C)c1=O,13.7
11,COc1cc(-c2ccc(NC(=O)NC3CC3)c(OC)c2)ccc1NC(=O)NC1CC1,17.9
12,CC(=O)/C(=C/Nc1ccc(Oc2ccccc2)cc1)c1ccccc1,-0.287
13,COc1cc(C2C(C#N)=C(N)Oc3c2ccc2ccccc32)ccc1OCC(=O)Nc1ccc(C)cc1 (stereo not drawn),13.1
14,COc1ccccc1NC1=C(Cl)C(=O)OC1OC(=O)c1ccco1 (stereo not drawn),13.4
15,CSc1oc(-c2ccco2)nc1S(=O)(=O)c1ccc(F)cc1,9.6
16,COc1ccc(-n2c(C)nc3cc(C(=O)O)ccc32)cc1,9.14
17,Cc1c(-c2cc(C(=O)O)no2)cnn1C,14.1
18,Cc1ccccc1Nc1nc(N)nc(COc2ccc(C#N)cc2)n1,-4.44
19,CCOc1cc(C(N)=O)cc(Cl)c1OCc1ccccc1,7.74
20,Cc1ccc(C(=O)NCC(=O)Nc2ccc(F)c(F)c2F)cc1,10.1
21,COCCCNC(=S)NNC(=O)c1csc2ccccc12,9.29
22,CCOC(=O)C1CCCCN1Cc1ccc(-c2ccccc2)cc1 (stereo not drawn),17.3

row,Structure (SMILES),"hERG current change (%, negative = inhibition) at 1uM [%]"
1,O=C(NNC(=O)C1CCCCC1)C(=O)NC1CCCCC1,8.76
2,O=C(NCC1CCCO1)/C(=C\c1cccs1)NC(=O)c1ccccc1 (stereo not drawn),11.3
3,CC1CCN(S(=O)(=O)c2ccc(C(=O)NCc3ccco3)cc2)CC1,3.56
4,O=C(NNC1CC(=O)N(c2ccc3c(c2)OCCO3)C1=O)c1ccccc1 (stereo not drawn),13.5
5,CC(=O)Nc1cccc(C(=O)Nc2ccccc2N2CCOCC2)c1,11.3
6,CCNc1ccc(Br)cc(C(=O)/C=C/c2ccc(Cl)cc2Cl)c1=O,5.03
7,COc1ccc(-c2cc(C(=O)N(C)Cc3cccc(OC)c3OC)c3ccccc3n2)cc1OC,-2.95
8,COc1ccc(CNC(=O)c2cc3ccccc3o2)cc1OC,17.4
9,CCOC(=O)c1oc2cc(O)ccc2c(=O)c1-c1ccc(OC)cc1,14.5
10,O=C(c1cnc2n(c1=O)CCS2)N1CCN(c2ccc([N+](=O)[O-])cc2)CC1,-15.2
11,Cc1ccc(S(=O)(=O)N2CCCCC2)cc1NC(=O)COC(=O)c1c(F)cccc1F,7.19
12,O=C(NNC(=O)C12CC3CC(CC(C3)C1)C2)c1cccc([N+](=O)[O-])c1,9.44
13,C=CCn1c(SCC(=O)Nc2cc(OC)c(NC(=O)c3ccco3)cc2OC)nnc1-c1ccncc1,15.4
14,Cc1ccnc(NS(=O)(=O)c2ccccc2)n1,4.84
15,C[n+]1ccc(-c2cc[n+](C)cc2)cc1.[Cl-],3.57
16,O=C(O)c1ccc(CSc2n[nH]c(-c3ccco3)n2)cc1,4.06
17,CC(C)(C)NC(=O)NC(=O)COC(=O)c1ccc(OC(F)F)cc1,9.04
18,COc1ccc2nc(COC(=O)c3cccc([N+](=O)[O-])c3)c(C(C)=O)[n+]([O-])c2c1,17.5
19,Cc1ccc(-c2nc3ncccn3c2NC2CCCCC2)o1,-1.2
20,O=C(Cc1ccc(S(=O)(=O)N2CCOCC2)s1)NCCOc1ccccc1,9.44
21,CCOC1=NN(c2ccc(Cl)cc2)C(=O)/C1=C\N(C)C,-13.7
22,O=C(Nc1ccc(F)cc1)C1CCN(C(=O)NCc2ccccc2)CC1,-5.28

row,Structure (SMILES),"hERG current change (%, negative = inhibition) at 1uM [%]"
1,Cc1cc(N/N=C/c2ccc(O)cc2O)nc(N2CCOCC2)n1,4.36
2,Cn1c(=O)n(C)c2cc([N+](=O)[O-])c(N3CCN(C(=O)c4ccccc4)CC3)cc21,-0.909
3,O=C(CSc1nc2ccccc2n1CC(=O)N1CCCC1)NCc1ccc2c(c1)OCO2,-3.27
4,CC(=O)c1cccc(OCc2cc(C(=O)N(C)CCC3CCOCC3)no2)c1,4.9
5,COc1ccc(-c2nc(-c3ccncc3)no2)cc1,8.13
6,Cc1ccc(CN2C(=O)C(C)Oc3ccccc32)cc1 (stereo not drawn),16.2
7,COc1ccc(Nc2nnc(SCC(=O)c3cc(C)n(CC4CCCO4)c3C)s2)cc1 (stereo not drawn),15.1
8,O=C(NC1CCCC1)C(c1ccncc1)N(C(=O)c1csnn1)c1ccc(F)c(Cl)c1 (stereo not drawn),10.8
9,CCOc1cc(CNCCO)cc(Br)c1OCc1ccc(Cl)cc1.Cl,-8.87
10,Cc1ccc(-n2ncc3c(=O)n(CC(=O)NCc4ccco4)cnc32)cc1,23
11,CC(C)CCn1c(-c2nonc2N)nc2ccccc21,6.14
12,O=C(O)C(Cc1ccccc1)Nc1ccc([N+](=O)[O-])cc1[N+](=O)[O-] (stereo not drawn),18.7
13,COc1cc(CN2CCCCC2C(=O)Nc2ccc(Oc3ccccc3)nc2)ccc1O (stereo not drawn),12.6
14,CCc1nnc(NS(=O)(=O)c2ccc(N=Cc3c(O)n(-c4ccccc4)c(=O)[nH]c3=O)cc2)s1,6.95
15,CCOC(=O)Cc1c(C)nc2c(-c3ccc(Cl)cc3)cnn2c1C,8.93
16,Cc1sc2ncnc(N3CCC(C(=O)Nc4ccccc4C(C)(C)C)CC3)c2c1C,-3.64
17,CCN(CC)Cc1csc(C(N)=O)c1,18.1
18,Cc1cc(NC(=O)CSCC(=O)Nc2nc3ccc(F)cc3s2)no1,19.2
19,CCOC(=O)CN1CC23C=CC(O2)C(C(=O)NCc2ccccc2OC)C3C1=O (stereo not drawn),-12.8
20,COc1ccc(C(=O)Nc2ccnn2C2CCN(Cc3ccncc3)CC2)cc1,-0.365
21,O=C(Nc1ccc(N2CCOCC2)cc1)Nc1ccc2nc(-c3ccco3)c(-c3ccco3)nc2c1,-2.53
